# Reference: PubChem BioAssay AID2100 (National Center for Advancing Translational Sciences (NCATS), 2009)
# Hit rate of the full screen: of about 300,000 compounds, about 1,200 (0.4%) were called active. Inconclusive results, whose numbers are uncertain, are shown with a selection of clear calls. The call rests on the fitted dose curve; in most records, active means well fitted inhibition curve with a large enough effect; inconclusive means small, poorly fitted or top-dose-only effect, or another doubt; inactive means no such curve, though single readings can be large or run the other way. Potencies beside an inconclusive call are fits to weak or partial responses and may not hold up.
# Molecular target: Lysosomal alpha-glucosidase (Homo sapiens) (UniProt P10253)
# Assay: qHTS Assay for Inhibitors and Activators of Human alpha-Glucosidase Cleavage of Glycogen;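 on activity change, negative = inhibition: 0% = full enzyme reaction and -100% = no-enzyme basal signal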
# Conditions: recombinant GAA, glycogen substrate, Amplex Red glucose oxidase fluorescence; activity change, negative = inhibition: at 76.4 µM (top of the series) unless noted
# How it was run: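 Recombinant human alpha-glucosidase (4 nM final) hydrolysed bovine liver glycogen (30 ug) for 40 min at 37 C in pH 5.0 citrate/phosphate with 0.01% Tween-20. Released glucose detected by glucose oxidase/Amplex Red, Ex 573/Em 610 nm. Compounds up to 77 uM; AC50 from Hill fits.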
# Potency means the concentration at half of the fitted maximal effect.
SMILES,Potency,"activity change, negative = inhibition"
CSS(=O)(=O)c1cccc2cccnc12,"inconclusive: 7.94 µM [inhibitor, partial curve]",
NNC(=O)c1nc[nH]c1C(=O)Nc1ccccc1,"inconclusive: 3.55 µM [inhibitor, partial curve]",
CCOC(=O)C(CSCC(=O)c1ccc(Cl)cc1Cl)NC(=O)OC(C)(C)C (centres undefined),"inconclusive: 14.1 µM [inhibitor, partial curve]",
COc1cc(/C=N/NC(=S)Nc2cccnc2)cc(OC)c1O,"inconclusive: 39.8 µM [inhibitor, partial curve, poor fit]",
O=[N+]([O-])c1ccc(N2CCN(c3ccccc3O)CC2)cc1,"inconclusive: 11.2 µM [inhibitor, single point]",
CCC(=O)N1CCc2cc(S(=O)(=O)NCCC(=O)Nc3cc(C)ccc3OC)ccc21,"inconclusive: 11.2 µM [inhibitor, single point]",
Cc1ccc2nc(-c3ccc(O)cc3)c(Nc3ccc(Cl)cc3)n2c1,"inconclusive: 31.6 µM [inhibitor, partial curve]",
Cc1ccc(NC(=O)Cn2c(=O)c3ccccc3n3nncc23)cc1,,inactive: -2.27% [at 76.3 µM]
CCc1ccc2nc3n[nH]c(N)c3cc2c1,active: 17.8 µM,
Oc1ccc(/C=N/N2CCN(C3c4ccccc4-c4ccccc43)CC2)cc1O,active: 10 µM,
C/C(=N/NC(=O)c1sc(NS(=O)(=O)c2ccccc2)nc1C)c1ccccc1,"inconclusive: 31.6 µM [inhibitor, single point]",
CCn1cnc2cc(NCc3cccc(OC)c3O)ccc21,active: 15.7 µM,
Cc1cc(C)c(O)c(-c2cc(C(=O)Nc3ccc(S(=O)(=O)N4CCOCC4)cc3)[nH]n2)c1,"inconclusive: 22.2 µM [inhibitor, partial curve]",
NNC(=S)NCCc1ccccc1,"inconclusive: 50.1 µM [inhibitor, single point]",
Cc1cc(N2CCOCC2)nc2ccc(NC(=O)CCC(=O)N3CCCCC3)cc12,,inactive: 5.23%
COc1c(/C=N/NC(=O)c2ccccc2O)c(CCN(C)C(C)=O)cc2c1OCO2,"inconclusive: 12.6 µM [inhibitor, partial curve]",
Cc1ccc2nsnc2c1S(=O)(=O)N1CCOCC1,"inconclusive: 4.43 µM [inhibitor, single point]",
COc1cccc(OC)c1C(=O)Nc1ccccc1N1CCCC1,"inconclusive: 9.92 µM [inhibitor, partial curve]",
Cc1nnc(SCc2nc(-c3ccc(Cl)cc3)no2)n1-c1ccc(F)cc1,,inactive: -1.33% [at 76.3 µM]
N#C/C(=C\c1cc(O)c(O)c(O)c1)C(N)=O,active: 5.01 µM,
CCN1/C(=C2\C(=O)N(C)C(=S)N2C)C=Cc2cc(C)ccc21,"inconclusive: 22.4 µM [inhibitor, partial curve]",
Cc1ccc(NC(=O)C2CCCCC2)c(O)c1,"inconclusive: 17.6 µM [inhibitor, single point]",

SMILES,Potency,"activity change, negative = inhibition"
Cc1c(C(=O)OCC2CCCCC2)[nH]c2c1C(=O)CC(c1ccc(Cl)cc1)C2 (centres undefined),"inconclusive: 11.2 µM [inhibitor, single point]",
COc1cccc(C(=O)N(Cc2ccc(N(C)C)cc2)C2CCS(=O)(=O)C2)c1 (centres undefined),"inconclusive: 39.8 µM [inhibitor, partial curve]",
COC(=O)Cc1ccc(NC(=S)NCCSc2ccc(C)cc2)cc1,"inconclusive: 31.6 µM [inhibitor, partial curve, poor fit]",
Cc1ccc(C(c2c(C)[nH][nH]c2=O)c2c(C)[nH][nH]c2=O)cc1,"inconclusive: 50.1 µM [inhibitor, single point]",
Cn1c(=O)cc(C(=O)N/N=C/c2ccc(Cl)cc2)[nH]c1=O,"inconclusive: 22.4 µM [inhibitor, partial curve]",
COc1ccc(CC(=O)Nc2c(C(=O)Nc3ccc(F)cc3)oc3ccccc23)cc1OC,,inactive: 10.9% [at 76.3 µM]
COC(=O)c1c(N2C(=O)CC(Sc3ncccc3C(=O)O)C2=O)sc(C)c1C (centres undefined),"inconclusive: 28.2 µM [inhibitor, partial curve]",
FC(F)(F)c1cnc2c(c1)Nc1ccccc1S2,"inconclusive: 24.9 µM [inhibitor, partial curve]",
Cc1ccc(NS(=O)(=O)c2cc([N+](=O)[O-])ccc2NNC(=S)Nc2cccc(Cl)c2)c(C)c1,"inconclusive: 31.6 µM [inhibitor, single point]",
CCOC(=O)NNc1ccccc1,"inconclusive: 8.91 µM [inhibitor, partial curve]",
CCOC(=O)C(=CNNc1ccccc1)C(=O)OCC,"inconclusive: 35.5 µM [inhibitor, single point]",
Cc1ccc(OCC(=O)Nc2ccc(Cl)c(-c3nc4ccccc4[nH]3)c2)cc1C,"inconclusive: 7.08 µM [inhibitor, partial curve]",
CCc1ccc(CNc2ccc3c(c2)ncn3C)cc1,"inconclusive: 14 µM [inhibitor, partial curve]",
Cc1ccc(N(CC(=O)Nc2ccc(Br)c(C)c2)S(=O)(=O)c2c(C)[nH]c(=O)[nH]c2=O)cc1,,inactive: -14% [at 76.3 µM]
C/C(O)=C(\N=Nc1cc(C)ccc1O)C(N)=O,"inconclusive: 4.47 µM [inhibitor, full curve]",
COc1cc(OC)cc(-c2cc(N3C(=O)Nc4ccccc4N3O)n[nH]2)c1,"inconclusive: 31.6 µM [inhibitor, partial curve]",
CCCc1nnc(NC(=O)Cn2cnc3ccccc3c2=O)s1,,inactive: 10.2%
Cc1ccc(NC(=O)C2CCCN(S(=O)(=O)c3c(C)noc3C)C2)cc1F (centres undefined),,inactive: 5.06%
CC(=O)N1CCN(c2ccc(NCc3cccs3)cc2)CC1,active: 39.8 µM,
S=C(NCCCN1CCOCC1)Nc1ccc(Nc2ccccc2)cc1,"inconclusive: 50.1 µM [inhibitor, single point]",
CC(=O)Nc1ccc(/C(C)=N/Nc2nc(N3CCOCC3)nc(N3CCOCC3)n2)cc1,"inconclusive: 22.4 µM [inhibitor, partial curve]",
COc1ccc(NS(=O)(=O)c2cc(NC(=O)c3ccco3)ccc2N2CCCC2)cc1,"inconclusive: 39.8 µM [inhibitor, partial curve]",
